Assay results published in the supplement of paper PMC8728848.
The other results are listed elsewhere or left out.

Columns and labels:
Test in all cases: glycan array binding signal (z-score within array); higher = stronger binding
Details in all cases: glycan notation: IUPAC condensed, linker removed
[1] = target: GlcNAc(b1-3)Gal(b1-4)GlcNAc(b1-3)Gal(b1-4)GlcNAc(b1-3)Gal(b1-4)GlcNAc(b1-2)Man(a1-3)[GlcNAc(b1-3)Gal(b1-4)GlcNAc(b1-3)Gal(b1-4)GlcNAc(b1-3)Gal(b1-4)GlcNAc(b1-2)Man(a1-6)]Man(b1-4)GlcNAc(b1-4)GlcNAc
Method in brief: (§1)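 The Consortium for Functional Glycomics database supplied 3228 glycan arrays, of which those lacking an available protein sequence were dropped. The binding signal, a within-array Z-score, was averaged across arrays of the same protein sequence and across linkers. Negative scores can be read as non-binding.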

[2] = target: GlcNAc(b1-3)Gal(b1-4)GlcNAc(b1-3)Gal(b1-4)GlcNAc(b1-3)Gal(b1-4)GlcNAc(b1-2)Man(a1-3)[GlcNAc(b1-3)Gal(b1-4)GlcNAc(b1-3)Gal(b1-4)GlcNAc(b1-3)Gal(b1-4)GlcNAc(b1-2)Man(a1-6)]Man(b1-4)GlcNAc(b1-4)[Fuc(a1-6)]GlcNAc
Method in brief: as §1

[3] = target: GlcNAc(b1-3)Gal(b1-4)GlcNAc(b1-3)Gal(b1-4)GlcNAc(b1-3)Gal(b1-4)GlcNAc(b1-2)[GlcNAc(b1-3)Gal(b1-4)GlcNAc(b1-3)Gal(b1-4)GlcNAc(b1-3)Gal(b1-4)GlcNAc(b1-6)]Man(a1-6)[GlcNAc(b1-3)Gal(b1-4)GlcNAc(b1-3)Gal(b1-4)GlcNAc(b1-3)Gal(b1-4)GlcNAc(b1-2)Man(a1-3)]Man(b1-4)GlcNAc(b1-4)[Fuc(a1-6)]GlcNAc
Method in brief: as §1

[4] = target: GlcNAc(b1-3)Gal(b1-4)GlcNAc(b1-3)Gal(b1-4)GlcNAc(b1-3)Gal(b1-4)GlcNAc(b1-3)Gal(b1-4)GlcNAc(b1-2)Man(a1-3)[GlcNAc(b1-3)Gal(b1-4)GlcNAc(b1-3)Gal(b1-4)GlcNAc(b1-3)Gal(b1-4)GlcNAc(b1-3)Gal(b1-4)GlcNAc(b1-2)Man(a1-6)]Man(b1-4)GlcNAc(b1-4)GlcNAc
Method in brief: as §1

[5] = target: GlcNAc(b1-3)Gal(b1-4)GlcNAc(b1-3)Gal(b1-4)GlcNAc(b1-3)Gal(b1-4)GlcNAc(b1-3)Gal(b1-4)GlcNAc(b1-2)Man(a1-3)[GlcNAc(b1-3)Gal(b1-4)GlcNAc(b1-3)Gal(b1-4)GlcNAc(b1-3)Gal(b1-4)GlcNAc(b1-3)Gal(b1-4)GlcNAc(b1-2)Man(a1-6)]Man(b1-4)GlcNAc(b1-4)[Fuc(a1-6)]GlcNAc
Method in brief: as §1

[6] = target: GlcNAc(b1-3)Gal(b1-4)GlcNAc(b1-3)Gal(b1-4)GlcNAc(b1-3)Gal(b1-4)GlcNAc(b1-3)Gal(b1-4)GlcNAc(b1-2)[GlcNAc(b1-3)Gal(b1-4)GlcNAc(b1-3)Gal(b1-4)GlcNAc(b1-3)Gal(b1-4)GlcNAc(b1-3)Gal(b1-4)GlcNAc(b1-6)]Man(a1-6)[GlcNAc(b1-3)Gal(b1-4)GlcNAc(b1-3)Gal(b1-4)GlcNAc(b1-3)Gal(b1-4)GlcNAc(b1-3)Gal(b1-4)GlcNAc(b1-2)Man(a1-3)]Man(b1-4)GlcNAc(b1-4)[Fuc(a1-6)]GlcNAc
Method in brief: as §1

[7] = target: GlcNAc(b1-3)Gal(b1-4)GlcNAc(b1-3)Gal(b1-4)GlcNAc(b1-3)GalNAc
Method in brief: as §1

[8] = target: GlcNAc(b1-3)Gal(b1-4)GlcNAc(b1-3)GalNAc
Method in brief: as §1

[9] = target: GlcNAc(b1-3)Gal(b1-4)GlcNAc(b1-3)[GlcNAc(b1-3)Gal(b1-4)GlcNAc(b1-3)]GalNAc
Method in brief: as §1

[10] = target: GlcNAc(b1-3)Gal(b1-4)GlcNAc(b1-6)[Gal(b1-3)]GalNAc
Method in brief: as §1

[11] = target: GlcNAc(b1-3)Gal(b1-4)GlcNAc(b1-6)[GlcNAc(b1-3)Gal(b1-3)]GalNAc
Method in brief: as §1

[12] = target: GlcNAc(b1-3)Gal(b1-4)GlcNAc(b1-6)[GlcNAc(b1-3)]Gal(b1-4)GlcNAc
Method in brief: as §1

[13] = target: GlcNAc(b1-3)GalNAc
Method in brief: as §1

[14] = target: GlcNAc(b1-3)Man
Method in brief: as §1

[15] = target: GlcNAc(b1-3)[GlcNAc(b1-4)][GlcNAc(b1-6)]GlcNAc
Method in brief: as §1

[16] = target: GlcNAc(b1-3)[GlcNAc(b1-6)]Gal(b1-4)GlcNAc
Method in brief: as §1

[17] = target: GlcNAc(b1-3)[GlcNAc(b1-6)]GalNAc
Method in brief: as §1

[18] = target: GlcNAc(b1-4)Gal(b1-4)GlcNAc
Method in brief: as §1

[19] = target: GlcNAc(b1-4)GlcNAc
Method in brief: as §1

[20] = target: GlcNAc(b1-4)GlcNAc(b1-4)GlcNAc
Method in brief: as §1

[21] = target: GlcNAc(b1-4)GlcNAc(b1-4)GlcNAc(b1-4)GlcNAc(b1-4)GlcNAc
Method in brief: as §1

[22] = target: GlcNAc(b1-4)GlcNAc(b1-4)GlcNAc(b1-4)GlcNAc(b1-4)GlcNAc(b1-4)GlcNAc
Method in brief: as §1

[23] = target: GlcNAc(b1-4)[GlcNAc(b1-6)]GalNAc
Method in brief: as §1

[24] = target: GlcNAc(b1-6)Gal(b1-4)GlcNAc
Method in brief: as §1

[25] = target: GlcNAc(b1-6)GalNAc
Method in brief: as §1

[26] = target: GlcNAc3Prop(b1-4)GlcNAc
Method in brief: as §1

[27] = target: GlcNAc6S(b1-3)Gal(b1-4)GlcNAc
Method in brief: as §1

[28] = target: Kdn(a2-3)Gal(b1-3)GalNAc
Method in brief: as §1

[29] = target: Kdn(a2-3)Gal(b1-3)GlcNAc
Method in brief: as §1

[30] = target: Kdn(a2-3)Gal(b1-4)Glc
Method in brief: as §1

[31] = target: Kdn(a2-3)Gal(b1-4)GlcNAc
Method in brief: as §1

[32] = target: Kdn(a2-3)Gal(b1-4)[Fuc(a1-3)]GlcNAc
Method in brief: as §1

[33] = target: Kdn(a2-6)Gal(b1-4)GlcNAc
Method in brief: as §1

[34] = target: Man(a1-2)Man(a1-2)Man(a1-3)Man
Method in brief: as §1

[35] = target: Man(a1-2)Man(a1-2)Man(a1-6)[Man(a1-3)]Man
Method in brief: as §1

[36] = target: Man(a1-2)Man(a1-3)Man
Method in brief: as §1

[37] = target: Man(a1-2)Man(a1-3)[Man(a1-2)Man(a1-6)]Man
Method in brief: as §1

[38] = target: Man(a1-2)Man(a1-3)[Man(a1-2)Man(a1-6)]Man(a1-6)[Man(a1-2)Man(a1-2)Man(a1-3)]Man
Method in brief: as §1

B1: Gal 9 (Homo sapiens), O00182 (protein)
chain: MAFSGSQAPYLSPAVPFSGTIQGGLQDGLQITVNGTVLSSSGTRFAVNFQTGFSGNDIAFHFNPRFEDGGYVVCNTRQNGSWGPEERKTHMPFQKGMPFDLCFLVQSSDFKVMVNGILFVQYFHRVPFHRVDTISVNGSVQLSYISFQNPRTVPVQPAFSTVPFSQPVCFPPRPRGRRQKPPGVWPANPAPITQTVIHTVQSAPGQMFSTPAIPPMMYPHPAYPMPFITTILGGLYPSKSILLSGTVLPSAQRFHINLCSGNHIAFHLNPRFDENAVVRNTQIDNSWGSEERSLPRKMPFVRGQSFSVWILCEAHCLKVAVDGQHLFEYYHRLRNLPTINRLEVGGDIQLTHVQT
glycan array binding signal (z-score) [1]: 0.663 | glycan array binding signal (z-score) [2]: 0.052 | glycan array binding signal (z-score) [3]: 1.9 | glycan array binding signal (z-score) [4]: 2.25 | glycan array binding signal (z-score) [5]: 1.89 | glycan array binding signal (z-score) [6]: 2.32 | glycan array binding signal (z-score) [7]: -0.205 | glycan array binding signal (z-score) [8]: -0.286 | glycan array binding signal (z-score) [9]: -0.273 | glycan array binding signal (z-score) [10]: -0.248 | glycan array binding signal (z-score) [11]: -0.283 | glycan array binding signal (z-score) [12]: -0.118 | glycan array binding signal (z-score) [13]: -0.316 | glycan array binding signal (z-score) [14]: -0.329 | glycan array binding signal (z-score) [15]: -0.318 | glycan array binding signal (z-score) [16]: -0.311 | glycan array binding signal (z-score) [17]: -0.318 | glycan array binding signal (z-score) [18]: -0.322 | glycan array binding signal (z-score) [19]: -0.324 | glycan array binding signal (z-score) [20]: -0.33 | glycan array binding signal (z-score) [21]: -0.325 | glycan array binding signal (z-score) [22]: -0.316 | glycan array binding signal (z-score) [23]: -0.335 | glycan array binding signal (z-score) [24]: -0.313 | glycan array binding signal (z-score) [25]: -0.31 | glycan array binding signal (z-score) [26]: -0.333 | glycan array binding signal (z-score) [27]: -0.202 | glycan array binding signal (z-score) [28]: -0.314 | glycan array binding signal (z-score) [29]: -0.281 | glycan array binding signal (z-score) [30]: -0.315 | glycan array binding signal (z-score) [31]: -0.281 | glycan array binding signal (z-score) [32]: -0.312 | glycan array binding signal (z-score) [33]: -0.312 | glycan array binding signal (z-score) [34]: -0.315 | glycan array binding signal (z-score) [35]: -0.312 | glycan array binding signal (z-score) [36]: -0.327 | glycan array binding signal (z-score) [37]: -0.305 | glycan array binding signal (z-score) [38]: -0.311
